In the supplement of paper PMC3334620:
Whole data set: some 33,000 sequences, median “E-score (-0.5 to 0.5)” near -0.043, cut for the highest 2% near 0.37. The list shows a part of the results.

target: T1, Upc2 (UniProt Q12151); assay: PBM E-score (8-mer binding enrichment) (E-score (-0.5 to 0.5)); higher = stronger / more preferred TF binding; most listed sequences are background and not binding sites; conditions: protein concentration: 200 nM; construct: GST-full length
T1 sequence: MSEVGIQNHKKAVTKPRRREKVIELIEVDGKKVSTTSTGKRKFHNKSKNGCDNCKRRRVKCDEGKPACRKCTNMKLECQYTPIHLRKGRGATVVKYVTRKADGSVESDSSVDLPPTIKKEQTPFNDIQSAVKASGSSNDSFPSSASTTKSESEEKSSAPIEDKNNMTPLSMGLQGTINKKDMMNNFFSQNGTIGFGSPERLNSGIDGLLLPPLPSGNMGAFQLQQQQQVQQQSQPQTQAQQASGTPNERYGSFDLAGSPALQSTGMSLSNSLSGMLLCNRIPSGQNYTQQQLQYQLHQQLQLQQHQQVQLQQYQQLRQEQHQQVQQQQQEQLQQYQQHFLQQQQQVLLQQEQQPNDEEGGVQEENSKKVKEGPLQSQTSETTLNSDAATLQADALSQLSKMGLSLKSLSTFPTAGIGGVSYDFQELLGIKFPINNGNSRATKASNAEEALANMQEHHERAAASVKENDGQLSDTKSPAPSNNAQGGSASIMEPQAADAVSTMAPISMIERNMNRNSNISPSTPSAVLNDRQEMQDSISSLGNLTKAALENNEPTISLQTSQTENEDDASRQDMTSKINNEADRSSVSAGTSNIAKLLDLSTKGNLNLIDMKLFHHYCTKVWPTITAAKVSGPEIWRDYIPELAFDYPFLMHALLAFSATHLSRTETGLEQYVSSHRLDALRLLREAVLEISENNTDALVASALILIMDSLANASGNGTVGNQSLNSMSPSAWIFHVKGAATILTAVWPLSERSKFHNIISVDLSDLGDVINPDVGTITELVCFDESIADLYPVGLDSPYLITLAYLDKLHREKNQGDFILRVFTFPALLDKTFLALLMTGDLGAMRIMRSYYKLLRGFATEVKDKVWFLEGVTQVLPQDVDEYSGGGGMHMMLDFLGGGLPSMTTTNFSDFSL
Procedure, shortened: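 Detection of bound protein used fluorescent anti-GST, with scans normalised by masliner. The proteins were GST-tagged yeast transcription factors applied at about 100-200 nM to universal all-10-mer Agilent arrays made double-stranded by primer extension. Each ungapped eight-base word, pooled with its reverse complement, was scored with an E-score from the Universal PBM Analysis Suite.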

Sequence | PBM E-score
AGCTGGTA | -0.167
CTCAGTCA | -0.205
GGAAATTA | -0.0619
GAGAGCCC | 0.0408
ACAGTCTG | -0.015
GAGCCAGA | -0.182
TCGCCCGA | -0.206
CGGATAGC | 0.159
CCGTCAAA | 0.0979
GATTTGAA | -0.0247
ACATACCG | 0.0168
AGCATCAT | -0.246
TACGATAA | 0.416
CAAATTTC | 0.049
AACTCGCT | 0.254
AGCTCGCA | 0.205
GACCACTC | 0.0262
GTACCTCA | 0.0144
CTAGGCAC | -0.258
GCCTGATA | -0.0477
AAAGGAAG | -0.2
CTCGCGAA | 0.267
CGGGATCC | 0.0926
CCGTGAAA | -0.0103
CTTTACTA | -0.117

Sequence | PBM E-score
AACTTGCA | 0.0503
GCCCCTGA | -0.2
ACGGTTTG | 0.18
GTGAGCCA | -0.117
ATAAATAA | 0.202
CAATGGAA | -0.0836
CCTCTTCA | -0.149
ATAAGTAA | 0.0283
CTCTTAGA | -0.0667
TCGTCACA | 0.00434
AGAAAAAC | 0.00162
CCGGTCCC | -0.168
ATTACGAG | 0.378
AATTAGCC | -0.128
AGATTATG | -0.0643
AGCGTGGG | -0.219
ACATCATA | 0.00174
CCATCCCC | -0.274
CACATGCG | -0.0229
TCGGCCAA | -0.0693
CGAATGGC | -0.0195
CAGGGACG | -0.198
CAGCCCAA | -0.0637
GGCCACGA | -0.208
CCCACTGC | -0.13

Sequence | PBM E-score
TAGCTCCA | -0.0994
AGTGGCGG | -0.222
CGAACCGA | 0.293
TCGTGCCA | -0.00902
GTAACGAC | 0.326
CATTCTTC | -0.129
TACCAAAA | -0.062
CACTAGCA | -0.201
AGATACGA | 0.454
ATGGGCTG | -0.154
AATCACCA | -0.0247
ACAGGCCC | -0.29
AACTAAAT | -0.0165
CCACTTTC | -0.0836
GACGAAAA | 0.177
AGTTAGTA | -0.0415
ACTGCTAC | 0.0236
AGCCGGCT | -0.314
AGGATCTG | -0.176
CTTAGCCC | -0.113
AGCATCGG | -0.231
GGTTTCCA | -0.228
CGTTAGCA | 0.0714
CGTTCGTA | 0.45
ACGTACCG | 0.272

Sequence | PBM E-score
GAATGATC | 0.0166
AGGTACCT | -0.0876
CCTGAATC | -0.167
TATGGAGA | -0.157
GCTAAGAA | 0.0999
ACCATACA | -0.0345
CGTAAGAG | 0.316
GTTGTTAA | 0.0929
CTTAGCAC | -0.0813
GCTATAAA | 0.0876
ACCCGTGG | -0.174
ATCGATAA | 0.00669
CAATATGG | -0.308
AACCTACG | 0.0703
GTTTTGGA | -0.0699
CTCGACAA | -0.0801
ACACGGAA | -0.0611
CAGAGCCA | -0.101
ATCCTTAC | -0.0381
ATAGATGA | -0.0908
CGGGCAAA | 0.0178
AGGCTTTA | -0.0618
ATGTTACA | -0.0859
CCAGATTA | -0.131
ACTAGTTC | -0.0523

Sequence | PBM E-score
ACCCCTTG | -0.224
ATATACAG | 0.116
AAAAGTAC | 0.132
GGTTAGTA | 0.0936
GCATCGTA | 0.429
AGTTCGGG | -0.0213
GCAGTCTA | -0.216
ATCTGCAG | -0.109
GCAGCTAA | -0.156
GAAATTAC | 0.113
CGCAGTAA | -0.0453
GCGAACGC | 0.158
CAGCTTGC | -0.136
CACTGTTC | -0.128
TAAGTTCA | -0.047
CTAGCAGC | -0.286
CAAGCCGG | -0.204
TCGACTCA | -0.0433
ACGCCTAT | -0.0551
AAGCTTTC | -0.00324
CGCGACCG | 0.146
GAGAGCGC | -0.164
ACGGGCGG | -0.0925
TCAGCAAA | 0.0629
ATTTCCTA | 0.124

Sequence | PBM E-score
AAGTTTCT | -0.00273
ATCCGTCA | -0.129
GGCAAAGA | 0.0516
ACACGTCG | 0.0569
GAGTGGCC | 0.0105
AATGGTTC | 0.0645
AGTGCGTG | -0.00031
GACCGAAC | 0.105
ATGAGACA | -0.0142
GCATCGCC | -0.0273
CAATAAGC | -0.0521
AGTAGTAC | 0.182
ATATGAGC | -0.119
GGCATACC | -0.294
AAGGTTAT | -0.0588
AACCGAGT | 0.203
CAAAGCTG | -0.115
CCTGCGTA | 0.265
AACTGTTA | 0.152
GGCAGGGA | -0.152
ACGCGACC | 0.151
CAATCGCG | -0.0257
TAACCCAA | 0.00963
CGTCGAGC | -0.0913
TCATGGCA | -0.0847

Sequence | PBM E-score
CCCAATTC | 0.016
AGTAAGGA | -0.098
ATGACTTC | -0.0247
CGCAAGCC | -0.0123
ACTTTCCT | -0.267
GACGGCAA | -0.163
GTGACTTA | 0.0264
ACGCCTGA | 0.146
CATTTGGC | -0.176
AAGGTAAG | -0.0634
TATGCGCA | 0.0561
GTTACAGA | -0.126
ATCTCTCG | 0.0826
CCCACGCC | -0.0387
ATACGAAT | 0.459
TCGATTCA | -0.0611
CCTCATCA | -0.0689
GTAAAGAA | 0.193
CGAATGAC | 0.141
CGTAGCTC | 0.194
AAGAAGGC | -0.216
CATTTAAG | -0.11
